{"source": "PubChem BioAssay AID686971", "about": "(National Center for Advancing Translational Sciences (NCATS), 2013)", "note": "Among all 360,000 compounds or so, about 7,500 (2.1%) were called active. This list was built around the results that the source calls inconclusive (neither active nor inactive); the mix of calls is not that of the screen. The call rests on the fitted dose curve; in most records, active means well fitted cell-killing curve with a large enough effect; inconclusive means small, poorly fitted or top-dose-only effect, or effect the other way, or another doubt; inactive means no such curve, though single readings can be large or run the other way. No potency is given beside an inconclusive call; the fits are too rough. Potency means the concentration at half of the fitted maximal effect; tags describe the fitted curve by direction and shape."}
{"assay": "qHTS for induction of synthetic lethality in tumor cells producing 2HG: qHTS for the HT-1080-IDH1KD cell line;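 on activity, negative = toxicity: 0% = DMSO wells and -100% = cell-free medium wells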", "conditions": "HT-1080 IDH1 knockdown viability, ATP luminescence, 48 h; activity, negative = toxicity: at 46.1 µM (top of the series) unless noted", "outline": "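Knockdown cells (IDH1KD HT-1080) received compounds 2 h after plating at 750 cells/well and were kept 48 h at 37 °C in 5% FBS RPMI. A CellTiter-Glo luminescence read gave % activity for curve fitting.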"}
{"compound": "Cc1ccc(-n2[nH]c(C)c(/C=N/Nc3ccc([N+](=O)[O-])cc3[N+](=O)[O-])c2=O)cc1C", "Potency": "active: 20.6 µM"}
{"compound": "O=C(O)c1cc(-c2ccc3c(c2)OCCO3)n[nH]1", "Potency": "inconclusive [rising, single point]"}
{"compound": "Cc1cc(C)c2sc(N(CCCN(C)C)C(=O)CN3C(=O)c4ccccc4C3=O)nc2c1", "Potency": "inconclusive [cytotoxic, single point]"}
{"compound": "CCN1c2ccccc2NC2C1C(C(C)=O)C(=O)N2c1ccc(Cl)cc1", "note": "(stereo unspecified)", "Potency": "active: 15.8 µM"}
{"compound": "CN1c2ccsc2C(O)=C(C(=S)Nc2ccccc2)S1(=O)=O", "activity, negative = toxicity": "inactive: 11.2%"}
{"compound": "CCOC(=O)N1CCC(NC(=O)c2cc(COc3ccccc3SC)on2)CC1", "Potency": "inconclusive [cytotoxic, single point]"}
{"compound": "COc1ccc(C(=O)N2CCOC2CNC(=O)C(=O)NCc2ccccn2)cc1", "note": "(stereo unspecified)", "activity, negative = toxicity": "inactive: 4.46%"}
{"compound": "C[C@H]1CN([C@@H](C)CO)C(=O)c2cc(Br)cnc2O[C@H]1CN(C)S(=O)(=O)c1ccccc1F", "activity, negative = toxicity": "inactive: 8.93%"}
{"compound": "Cc1ccc(C)c(CSc2nc3[nH]ncc3c(=O)[nH]2)c1", "Potency": "active: 1.84 µM"}
{"compound": "CC1(C)N=C(N)N=C(N)N1c1ccc(OCC(=O)N2CCOCC2)c(Cl)c1", "Potency": "active: 0.13 µM"}
{"compound": "O=C1C=C(c2ccccc2)C[C@H](c2cccs2)[C@H]1n1nnc([N+](=O)[O-])n1", "Potency": "active: 9.2 µM"}
{"compound": "CC(C)=CCN1CCN(Cc2cc(F)ccc2-n2nc(C)cc2C)CC1CCO", "note": "(stereo unspecified)", "activity, negative = toxicity": "inactive: 11.9%"}
{"compound": "COc1ccc(NC(=O)Cc2ccc(-c3ccccc3)cc2)cn1", "Potency": "active: 23.1 µM"}
{"compound": "Cc1ccccc1-n1ncc(C(C)NS(=O)(=O)c2sccc2C)c1C", "note": "(stereo unspecified)", "activity, negative = toxicity": "inactive: -13.1%"}
{"compound": "CN(C)CC1CCC/C(=C\\c2ccc(OC(=O)c3ccc(Cl)cc3)cc2)C1=O", "note": "(stereo unspecified)", "Potency": "active: 2.91 µM"}
{"compound": "CCSc1nnc(NC(=O)c2nc(S(=O)(=O)Cc3ccc(F)cc3)ncc2Cl)s1", "Potency": "inconclusive [cytotoxic, single point]"}
{"compound": "O=C1/C(=C/c2ccc(N3CCCC3)cc2)NC(=S)N1C1CC1", "Potency": "active: 7.94 µM"}
{"compound": "O=C(c1ccc(Cl)cc1)c1c[nH]c(C(=O)C(Cl)(Cl)Cl)c1", "activity, negative = toxicity": "inactive: 9.85%"}
{"compound": "COc1ccc2sc(-c3ccccc3OC)c(-c3ccc(OCCN4CCCC4)cc3)c2c1", "Potency": "inconclusive [cytotoxic, single point]"}
{"compound": "Cc1cc(Cl)ccc1NC(=O)CN1CCC(C(O)(c2ccccc2)c2ccccc2)CC1", "Potency": "inconclusive [cytotoxic, single point]"}
{"compound": "COc1cccc(-n2c(C)cc(/C=C3\\C(=N)N4N=C(CC(=O)N5CCOCC5)SC4=NC3=O)c2C)c1", "activity, negative = toxicity": "inactive: -29.6%"}
